Paper PMC4336329 (PLoS ONE, 2015)
The campaign covered roughly 310,000 compounds. About 14,000 (4.5%) showed an effect of 50% or more. Effects have a minus sign here. Some of the results follow.

Molecular target: human ether-à-go-go-related gene (hERG) potassium channel (human, UniProt Q12809)
Assay: primary screen, population patch clamp on CHO cells stably expressing hERG
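Also: peak tail current of the secondary pulse compared with the same well before compound.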

human ether-à-go-go-related gene (hERG) potassium channel, sequence (Q12809 whole entry, looked up): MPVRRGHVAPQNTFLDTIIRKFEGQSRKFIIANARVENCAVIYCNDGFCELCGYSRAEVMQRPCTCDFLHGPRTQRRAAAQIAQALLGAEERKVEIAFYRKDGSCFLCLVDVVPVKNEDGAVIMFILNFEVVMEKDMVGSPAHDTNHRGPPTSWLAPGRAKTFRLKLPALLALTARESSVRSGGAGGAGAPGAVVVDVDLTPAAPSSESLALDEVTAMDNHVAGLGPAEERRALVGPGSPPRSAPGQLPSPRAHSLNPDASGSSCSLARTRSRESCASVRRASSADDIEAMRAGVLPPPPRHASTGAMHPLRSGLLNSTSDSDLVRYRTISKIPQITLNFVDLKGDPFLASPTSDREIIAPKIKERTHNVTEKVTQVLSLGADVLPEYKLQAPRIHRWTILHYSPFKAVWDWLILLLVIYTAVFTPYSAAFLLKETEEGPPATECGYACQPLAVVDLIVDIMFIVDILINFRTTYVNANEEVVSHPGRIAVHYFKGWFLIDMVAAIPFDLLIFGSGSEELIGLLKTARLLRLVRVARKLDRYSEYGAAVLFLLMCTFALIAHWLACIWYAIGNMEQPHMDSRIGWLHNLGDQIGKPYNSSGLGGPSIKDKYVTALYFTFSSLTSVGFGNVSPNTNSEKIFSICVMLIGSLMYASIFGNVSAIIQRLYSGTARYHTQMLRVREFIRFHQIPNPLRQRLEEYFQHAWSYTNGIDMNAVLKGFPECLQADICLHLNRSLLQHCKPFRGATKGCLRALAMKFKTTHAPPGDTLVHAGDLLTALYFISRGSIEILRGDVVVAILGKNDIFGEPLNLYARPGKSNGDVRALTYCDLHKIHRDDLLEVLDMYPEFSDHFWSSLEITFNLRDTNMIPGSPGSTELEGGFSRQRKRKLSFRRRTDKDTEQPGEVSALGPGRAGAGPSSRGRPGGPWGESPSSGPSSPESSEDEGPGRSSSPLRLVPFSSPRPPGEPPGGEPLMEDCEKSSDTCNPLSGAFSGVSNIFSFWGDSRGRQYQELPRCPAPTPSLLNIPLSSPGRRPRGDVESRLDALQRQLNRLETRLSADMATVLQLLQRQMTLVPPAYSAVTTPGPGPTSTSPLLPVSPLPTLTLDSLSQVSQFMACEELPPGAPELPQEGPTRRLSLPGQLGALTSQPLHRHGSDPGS

Compared with `CCOc1ccc(N(CC(=O)Nc2ccc(C)c(C)c2)S(=O)(=O)c2c(C)noc2C)cc1`, `Cc1nn(C)c(C)c1S(=O)(=O)N(CC(=O)NCCCOC(C)C)c1ccc(C(C)C)cc1` is lower in “hERG current change (%, negative = inhibition) at 10uM” value: 0.581% for the first, -69.6% for the second.

Compared with `Nc1c(N2CCCC2)cc(Cl)c2nonc12`, `Cc1csc2c(N3CCCCC3)ncnc12` is higher in “hERG current change (%, negative = inhibition) at 10uM” value: -22.4% for the first, 6.1% for the second.

Compared with `CC1CCCC(NC(=O)CSc2nncs2)C1C` (stereo not drawn), `CC1CCCCC1NC1CCN(C)CC1` (stereo not drawn) is higher in “hERG current change (%, negative = inhibition) at 10uM” value: -7.84% for the first, 23.9% for the second.

First: N#C/C(=C\c1ccc([N+](=O)[O-])o1)C(=O)Nc1ccc(F)cc1
Second: O=C(c1ccc(NS(=O)(=O)c2ccc(F)cc2)cc1)N1CCOCC1
The “hERG current change (%, negative = inhibition) at 10uM” value of the first is lower: 1.7% for the first, 14.9% for the second.

First: CCN(CC(=O)NCc1cccs1)C(=O)CCc1c[nH]c2ccccc12
Second: Cn1c(SCC(=O)NCCc2ccccc2)ncc(C(=O)Nc2ccccc2)c1=O
The “hERG current change (%, negative = inhibition) at 10uM” value of the first is lower: -17.6% for the first, 6.68% for the second.

First: CC1(C)Cc2nc3sc4c(SCC(=O)O)ncnc4c3cc2CO1
Second: CSc1nc(SCCN(C)C)c2c3c(sc2n1)COC(C)(C)C3
The “hERG current change (%, negative = inhibition) at 10uM” value of the first is higher: 7.89% for the first, -47% for the second.

Compared with `O=C(NCCCN1CCN(CCCNC(=O)c2cccc(Cl)c2)CC1)c1cccc(Cl)c1`, `COc1ccccc1Nc1cc(C(=O)NCCCN2CCOCC2)c2ccccc2n1` is higher in “hERG current change (%, negative = inhibition) at 10uM” value: -74.4% for the first, -37.3% for the second.

First: COC(=O)C1=C(C)NC(=O)NC1c1ccc(OCC(=O)N2CCCCC2)cc1 (stereo not drawn)
Second: CCCNC(=O)COC(=O)c1ccc(S(=O)(=O)N2CCCCCC2)cc1
The “hERG current change (%, negative = inhibition) at 10uM” value of the first is higher: 22.4% for the first, -13.5% for the second.

First: Cc1cc(C)c2c(c1)c(C)cc1nnc(SCC(=O)NCc3ccco3)n12
Second: Cc1cc(C)cc(NC(=O)Cn2nnc(C(=O)NCc3ccccc3Cl)c2N)c1
The “hERG current change (%, negative = inhibition) at 10uM” value of the first is lower: -8.05% for the first, 15.3% for the second.

Compared with `Cl.O=C(Nc1ccc(C(=O)OC[C@@H]2CCCN3CCCC[C@H]23)cc1)c1cccc(Br)c1`, `CCN(CC)C(=O)c1ccc(NC(=O)c2ccc(-n3cncn3)c([N+](=O)[O-])c2)cc1` is higher in “hERG current change (%, negative = inhibition) at 10uM” value: -69.3% for the first, -0.0451% for the second.

Compared with `CNC(=S)Nc1ccc([N+](=O)[O-])c(C)c1`, `COCCNCCOc1ccc(C)cc1[N+](=O)[O-].O=C(O)C(=O)O` is lower in “hERG current change (%, negative = inhibition) at 10uM” value: 13.8% for the first, -29.5% for the second.

First: Cn1c(=O)cc(OCC(=O)Nc2ccccn2)c2ccccc21
Second: O=C(CN1C(=O)/C(=C\c2ccccc2F)SC1=S)Nc1nc2ccccc2s1
The “hERG current change (%, negative = inhibition) at 10uM” value of the first is higher: 9.2% for the first, 6.36% for the second.

Compared with `CC(C)n1nc(C(=O)Oc2cc(Cl)ccc2Cl)c2ccccc2c1=O`, `CC(Oc1cccc(Cl)c1)C(=O)Nc1cc(Cl)ccc1N1CCOCC1` (stereo not drawn) is lower in “hERG current change (%, negative = inhibition) at 10uM” value: 4.89% for the first, -8.33% for the second.

First: O=C(c1ccc2ccccc2c1)N1CCN(c2ccccn2)CC1
Second: O=C1c2ccccc2S(=O)(=O)c2cc(C(=O)N3CCN(c4ccccc4)CC3)ccc21
The “hERG current change (%, negative = inhibition) at 10uM” value of the first is higher: -20% for the first, -25% for the second.

First: Cc1cc(=O)n2nc(N3CCCC3C(=O)NCCCN3CCCCC3)sc2n1 (stereo not drawn)
Second: Cc1cccc(C)c1OCc1cc(C(=O)N2CCC(C3CCCCC3)C2)no1 (stereo not drawn)
The “hERG current change (%, negative = inhibition) at 10uM” value of the first is lower: 7.62% for the first, 11.4% for the second.

Compared with `O=C(c1cccnc1)N1CCc2ccccc21`, `O=[N+]([O-])c1ccc(NCc2ccccc2N2CCC(CO)CC2)nc1` is lower in “hERG current change (%, negative = inhibition) at 10uM” value: -3.38% for the first, -36.7% for the second.

First: COC(=O)c1ccc(/C=N/N2CCN(Cc3ccccc3Cl)CC2)cc1
Second: COc1ccc(CN2CCN(C(=O)c3cccc4ccccc34)CC2)cc1OC.O=C(O)C(=O)O
The “hERG current change (%, negative = inhibition) at 10uM” value of the first is higher: 5.88% for the first, -3.88% for the second.

Compared with `COc1cc(/C=C/C(=O)OCC(=O)N2CC3(C)CC2CC(C)(C)C3)ccc1O` (stereo not drawn), `CNC(=O)COc1ccc(C=O)cc1OC` is higher in “hERG current change (%, negative = inhibition) at 10uM” value: -13.6% for the first, 6.75% for the second.

Compared with `COc1ccc(NC(=O)CN2C(=O)NC3(CCCC3)C2=O)cc1`, `Cc1ccc(-c2noc(=O)n2CC(=O)Nc2ccc(S(=O)(=O)NC3CC3)cc2)cc1` is lower in “hERG current change (%, negative = inhibition) at 10uM” value: 13.7% for the first, -7.37% for the second.

Going from `COc1cccc(C(=O)NCC(=O)NCc2cc(=O)n(C)c(=O)n2C)c1OC` to `COc1ccc(NC(=O)COc2ccc(/C=N/NC(=O)c3cccnc3)cc2OC)cc1`, the “hERG current change (%, negative = inhibition) at 10uM” value falls from 6.16% to -11.9%.

Going from `CC(=O)OC[C@H]1O[C@@H](O/N=C(\C)CCN2CCCCc3nc(C)c(C)cc32)[C@H](OC(C)=O)[C@@H](OC(C)=O)[C@@H]1OC(C)=O` to `CCOC(=O)N1CCN(C(=S)Nc2cc(OC)c(OC)cc2C(=O)OC)CC1`, the “hERG current change (%, negative = inhibition) at 10uM” value rises from -19.5% to 4.68%.

Going from `CCOC(=O)N1CCC(N2CCN(S(=O)(=O)c3ccc4ccccc4c3)CC2)CC1.O=C(O)C(=O)O` to `C=C(C)CCC(C)N1CCC(n2nccc2NC(=O)CCCc2ccccc2)CC1` (stereo not drawn), the “hERG current change (%, negative = inhibition) at 10uM” value falls from -6.5% to -74.2%.

Compared with `CCOC(=O)c1c(NC(=S)Nc2cccc(C)c2)sc2c1CC(C)(C)SC2`, `COc1ccc2nc(C)cc(Nc3cccc(C(=O)O)c3)c2c1` is higher in “hERG current change (%, negative = inhibition) at 10uM” value: 1.74% for the first, 21.7% for the second.

First: Cl.OC(COc1ccccc1)CN1CCN(CC(O)COc2ccccc2)CC1 (stereo not drawn)
Second: CCn1cc(CN2CCC(C(=O)Nc3cccc(-c4cccc(OC)c4)c3)CC2)cn1
The “hERG current change (%, negative = inhibition) at 10uM” value of the first is lower: -61.7% for the first, -49.8% for the second.

First: COc1cc(OC)cc(C(=O)NC(=S)NNC(=O)[C@H]2C[C@@H]2c2ccccc2)c1
Second: COc1cc(NC(=S)NCCCN2CCOCC2)cc(OC)c1
The “hERG current change (%, negative = inhibition) at 10uM” value of the first is higher: 28.5% for the first, -5.39% for the second.

Going from `O=C(Nc1cccc([N+](=O)[O-])c1)c1ccc(-c2ccccc2)cc1` to `O=C(Nc1ccccc1)c1ccccc1N=Cc1ccccc1O`, the “hERG current change (%, negative = inhibition) at 10uM” value rises from -8.22% to 2.2%.

Compared with `CCn1c(SCc2ccc(C(=O)OC)o2)nc2sc3c(c2c1=O)CCCC3`, `CCCn1c(SCC(=O)Nc2nc3c(s2)CCCC3)nc2c1c(=O)n(C)c(=O)n2C` is lower in “hERG current change (%, negative = inhibition) at 10uM” value: 11.1% for the first, -1.39% for the second.

First: Cc1ccc(NS(=O)(=O)c2ccc(Br)s2)nc1
Second: CN(C)c1ccnc2sc(C(=O)c3ccc(Br)cc3)c(N)c12
The “hERG current change (%, negative = inhibition) at 10uM” value of the first is higher: 23.4% for the first, 10.5% for the second.

First: Cc1cccc([C@@H]2[C@@H]3C(=O)N(Cc4ccccc4)C(=O)[C@@H]3[C@]3(Cc4ccccc4)C(=O)N(c4cccc(F)c4)C(=O)N23)c1
Second: COC(=O)[C@]1(Cc2ccccc2)N[C@H](c2ccc(-c3ccc(OC)cc3)cc2)[C@@H]2C(=O)N(C)C(=O)[C@@H]21.O=C(O)C(F)(F)F
The “hERG current change (%, negative = inhibition) at 10uM” value of the first is higher: 7.77% for the first, -9.55% for the second.

Compared with `CCCCn1c(N)c(N(CCOC)C(=O)COC(=O)C(C)(C)Oc2ccc(Cl)cc2)c(=O)[nH]c1=O`, `COc1ccc(/C=C/C(=O)NCC(=O)N=Nc2c(O)[nH]c3ccc([N+](=O)[O-])cc23)cc1` is higher in “hERG current change (%, negative = inhibition) at 10uM” value: -14.7% for the first, 13.6% for the second.

First: O=C(CNS(=O)(=O)N1CCOCC1)N/N=C/c1cccnc1
Second: O=C(CSC(=S)N1CCOCC1)N1N=CCC1c1ccccc1 (stereo not drawn)
The “hERG current change (%, negative = inhibition) at 10uM” value of the first is higher: 11.2% for the first, -5.99% for the second.

First: CC(C)(C)Nc1nc(Oc2ccc(=O)n(-c3ccccc3)n2)nc(N2CCOCC2)n1
Second: Oc1cccc(/C=N/Nc2nn3cnnc3c3ccccc23)c1
The “hERG current change (%, negative = inhibition) at 10uM” value of the first is lower: -6.58% for the first, 9.42% for the second.

First: CCOC(=O)c1sc2nc3c(SCC(=O)O)cc(C(=O)c4cc(F)ccc4O)cn3c(=O)c2c1C
Second: Cc1nc2ccc(S(=O)(=O)N(C)CC(=O)Nc3ccccc3F)cc2s1
The “hERG current change (%, negative = inhibition) at 10uM” value of the first is higher: 7.27% for the first, -17.1% for the second.

Compared with `C[N+]1(C)C2CC(OC(=O)C(CO)c3ccccc3)CC1C1OC12.[Br-]` (stereo not drawn), `COc1ccccc1N(CC(=O)NC1CCCC1)C(=O)c1cnn(C(C)C)c1` is higher in “hERG current change (%, negative = inhibition) at 10uM” value: -0.198% for the first, 2.92% for the second.

First: CCN(CC)C(=O)c1ccc(NS(=O)(=O)c2ccc(/C=C/C(=O)O)cc2)cc1
Second: CCN(CC)C(=O)CSC(=Nc1ccccc1F)NC#N
The “hERG current change (%, negative = inhibition) at 10uM” value of the first is higher: 19.8% for the first, -6.3% for the second.

Going from `Cc1noc(C)c1CSCC(=O)N1CCN(c2ccc(F)cc2)CC1` to `O=C1COc2ccc(S(=O)(=O)CCC(=O)N3CCN(c4cccc(C(F)(F)F)c4)CC3)cc2N1`, the “hERG current change (%, negative = inhibition) at 10uM” value falls from -38.1% to -46.3%.

Going from `Cc1csc(NC(=O)C2C3C=CC(O3)C2C(=O)O)n1` (stereo not drawn) to `O=C(N/N=C1\CCCc2c1[nH]c1ccc([N+](=O)[O-])cc21)c1ccncc1`, the “hERG current change (%, negative = inhibition) at 10uM” value falls from 12% to -37.5%.

First: c1ccc2sc(-c3ccncc3)nc2c1
Second: Cc1ccc2sc(N(CCCN(C)C)C(=O)c3nc4ccccc4s3)nc2c1C.Cl
The “hERG current change (%, negative = inhibition) at 10uM” value of the first is lower: -4.32% for the first, 3.59% for the second.

First: CC(C)NC(=O)C1CCCN(S(C)(=O)=O)C1 (stereo not drawn)
Second: CC(=O)N(C)CC#CCN1CCCC(CO)C1 (stereo not drawn)
The “hERG current change (%, negative = inhibition) at 10uM” value of the first is higher: 16.2% for the first, 0.563% for the second.

Compared with `N#CCn1c(C2CCCCC2)nc2ccccc2c1=O`, `Nc1ncnc2c1cnn2C1CCCCC1` is higher in “hERG current change (%, negative = inhibition) at 10uM” value: -20.6% for the first, 14.4% for the second.

Compared with `CCOC(=O)/C(C#N)=C1\CC2CCC1(C)C2(C)C` (stereo not drawn), `N#Cc1ccc(-c2ccc(Cl)cc2)nc1SCC(=O)c1cccc(Cl)c1` is higher in “hERG current change (%, negative = inhibition) at 10uM” value: 9.79% for the first, 28.9% for the second.

First: COc1ccc2cc1Oc1ccc(cc1)CC1c3c(cc(OC)c4c3Oc3cc5c(cc3O4)CCNC5C2)CCN1C (stereo not drawn)
Second: O=C1C2CC=CCC2C(=O)N1c1ccc(N2CCN(c3ccccn3)CC2)c([N+](=O)[O-])c1 (stereo not drawn)
The “hERG current change (%, negative = inhibition) at 10uM” value of the first is lower: 0.681% for the first, 7.61% for the second.
